Here are results for 59 compounds from PubChem BioAssay AID1963576 (National Center for Advancing Translational Sciences (NCATS), 2024).

Among all 46,000 compounds or so, about 60 (0.1%) were called active. Another 3% or so got no clear call; they are omitted. Calls come from the whole dose curve; as a rule, active = well fitted inhibition curve with a large enough effect; inconclusive = small, poorly fitted or top-dose-only effect; inactive = no such curve, though single readings can be large or run the other way. This is one part of the list.
Potency is the fitted concentration of half-maximal effect.

A short description of the assay: Primary qHTS assay for Inhibitors of ovarian cancer metastasis using an organotypic tumor microenvironment (TME) model.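 For Potency: count of GFP cancer cells still attached after washing and fixation.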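 For activity change, negative = inhibition: plate controls were DMSO wells for no effect and tomatine positive control wells for full effect.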 Note: nearly all actives have a fitted effect of over 65% in size. Particulars: SKOV3ip1-GFP adhesion/invasion on 3D omental model, fluorescence; series mostly up to 45.8 µM; activity change, negative = inhibition: at the top concentration. The essentials: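 A 3D layer of primary human omental fibroblasts, mesothelial cells, fibronectin and collagen I, grown 48 hr, received SKOV3ip1-GFP cells in serum-free medium plus compounds at 0.36-46 umol/L. After 2 hr RT and 16 hr 37 C, fixed adherent GFP cells were counted; normalized to DMSO and tomatine.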
On the technique in general: qHTS replaces the single test concentration by a dilution series.
With `Cc1ccc(Cl)cc1NC(=O)c1cc(-c2ccc3c(c2)OCCO3)on1`, the “activity change, negative = inhibition” value was inactive: 36.1%. Take `Cc1cc(C)c(NC(=O)CSc2cn(CC(=O)N3CCOCC3)c3ccccc23)c(C)c1`: the “activity change, negative = inhibition” value was inactive: -6.28%.

`CCCCNc1cc(N2CCN(C3CCCCC3)CC2)c2noc3c2c1C(=O)c1ccccc1-3`: the “activity change, negative = inhibition” value is inactive: 25.2%.

Consider `CCCCC(=O)N1CCN(c2nc3c(C)c(C)ccc3s2)CC1`, for which the “activity change, negative = inhibition” value was inactive: 0.523%. `CCc1ccc2c(c1)c(=O)c(C(=O)c1ccc(C)cc1)cn2CC(=O)Nc1ccccc1C`: the “activity change, negative = inhibition” value is inactive: 27.7%. Regarding `CCc1ccc2c(c1)c(=O)c(C(=O)c1ccccc1)cn2CC(=O)Nc1ccc(C)c(Cl)c1`, the call was inactive. Regarding `CCc1ccc(Cn2c(CNS(=O)(=O)c3ccc4c(c3)CCCC4)nc3cccnc32)cc1`, the “activity change, negative = inhibition” value is inactive: -0.346%. `CCN1CCN(C(=O)c2ccc3c(c2)N(Cc2ccc(Cl)cc2)C(=O)c2ccccc2S3=O)CC1` (centres undefined): the “activity change, negative = inhibition” value is inactive: -7.77%. Still for that read-out and setting: then `CCOc1ccc(NC(=O)c2oc3ccccc3c2NC(=O)Cc2cccs2)cc1`, with inactive: -0.922%. Take `Cc1oc2ncn(CC(C)C)c(=O)c2c1C(=O)NCCCN1CCCCC1C` (centres undefined): the “activity change, negative = inhibition” value was inactive: 2.42%. Consider `COc1cccc(Cn2c(=O)n(CC3CCC(C(=O)N4CCOCC4)CC3)c(=O)c3sccc32)c1` (centres undefined), for which the “activity change, negative = inhibition” value was inactive: 6.87%. In the case of `Cc1cc(C)c2c(n1)SCC(=O)N2CC(=O)Nc1cccc(C)c1C`, the result was inactive. Turning to `Cc1ccc(NC(=O)CSc2nc3nccnc3c(=O)n2CCc2c[nH]c3ccccc23)c(C)c1`, the “activity change, negative = inhibition” value was inactive: -1.53%. The same measure, in the same setting: the result for `COc1ccc(-c2c(C)nn3c(-c4ccccc4)cc(-c4ccccc4)nc23)cc1` reads inactive: -10.5%. In the case of `CCc1ccccc1NC(=O)c1ncoc1-c1ccco1`, the “activity change, negative = inhibition” value was inactive: 0.319%. As for `Cc1cccc(C)c1OCC(=O)Nc1c(C(=O)c2ccccc2)oc2ccccc12`, the Potency was active: 10 µM. As for `COc1ccc(-c2nnc(SCC(=O)NCCc3ccccc3)nc2-c2ccc(OC)cc2)cc1`, the “activity change, negative = inhibition” value was inactive: 0.319%. On to `Cc1ccc(-c2nnn3c2nc(N2CCC(C)CC2)c2ccccc23)cc1`, for which the “activity change, negative = inhibition” value is inactive: -1.71%. Turning to `CCOc1ccc(NC(=O)c2ncn(-c3ccccc3)n2)cc1`, the “activity change, negative = inhibition” value was inactive: 7.13%.

Turning to `O=C(CSc1ncc2c(n1)-c1cc(Cl)ccc1N(Cc1ccccc1)S2(=O)=O)NCc1ccccc1`, the outcome was inactive. On to `O=C1CSC2(C(=O)N(Cc3c(F)cccc3Cl)c3ccccc32)N1c1ccc(F)c(F)c1` (centres undefined), for which the “activity change, negative = inhibition” value was inactive: -8.48%.

As to `Cc1ccc(OCCSc2nc3ccccc3n2CC(=O)NC(C)C)cc1`, the “activity change, negative = inhibition” value is inactive: -4.25%. Regarding `O=C(O)CCCn1cc(NC(=O)COc2ccccc2F)cn1`, the “activity change, negative = inhibition” value was inactive: -24.1%. Turning to `O=C(Nc1ccc(OC(F)(F)F)cc1)C(NS(=O)(=O)c1cccc2nsnc12)c1ccccc1` (centres undefined), the “activity change, negative = inhibition” value was inactive: 6.17%. Regarding `CCc1ccc(C(=O)c2cn(CC(=O)Nc3ccc(OC)cc3)c3cc4c(cc3c2=O)OCCO4)cc1`, the call was inactive. As for `Cc1cc(SCC(=O)Nc2ccc(C(F)(F)F)cc2)nc(=O)[nH]1`, the result was inactive.

As for `CCCCOC(=O)c1ccc(NC(=O)c2cc(=O)c3ccccc3o2)cc1`, the “activity change, negative = inhibition” value is inactive: 3.49%.

As to `Cc1ccc(C)c(N2CCN(C(=O)c3cccn4c(=O)c5ccccc5nc34)CC2)c1`, the “activity change, negative = inhibition” value was inactive: -23.3%. As to `COCCCNC(=O)C1CCN(C(=O)c2cc3sccc3n2Cc2ccc(Cl)cc2)CC1`, the “activity change, negative = inhibition” value was inactive: -16.2%.

As for `Cc1cccc(CSc2ccc3nnc(CCNS(=O)(=O)c4ccccc4)n3n2)c1`, the “activity change, negative = inhibition” value was inactive: -0.55%.

Consider `COc1ccc(C(=O)Nc2ccc3nc(N4CCCCC4)cc(C)c3c2)cc1OC`, for which the call was inactive. For `COc1ccc(CCNC(=O)c2ccc(CSCc3ccc(C)cc3)o2)cc1OC`, the “activity change, negative = inhibition” value was inactive: 1.93%. For the compound `CCOc1ccc(S(=O)(=O)NCCc2csc3nc(-c4cccc(C)c4)nn23)cc1`, the outcome was inactive. With `Cc1ccc(C(=O)Nc2nnc(S(=O)(=O)N3CCCc4ccccc43)s2)cc1`, the “activity change, negative = inhibition” value was inactive: -21.2%. As for `COc1cc(NS(=O)(=O)c2cc3c(cc2C)n(C)c(=O)c(=O)n3C)cc(OC)c1`, the “activity change, negative = inhibition” value was inactive: -3.38%. Take `COc1cccc(C(=O)Nc2ccc(C(=O)OCc3cc(=O)n4cc(C)sc4n3)cc2)c1`: the call was inactive.

In the case of `Cc1nc2c(C(=O)NCCc3ccccc3)c[nH]n2c(=O)c1Cc1ccccc1F`, the result was inactive. Turning to `O=C(Nc1nnc(S(=O)(=O)N2CCOCC2)s1)c1cccc(Br)c1`, the “activity change, negative = inhibition” value is inactive: -2.88%. In the case of `O=S(=O)(c1ccc(Cl)cc1)N1CCC(c2ccncc2)CC1`, the “activity change, negative = inhibition” value is inactive: 3.68%. The same measure, in the same setting: the result for `Cc1nc2ccc(S(=O)(=O)NCC(=O)Nc3ccc(C)c(Cl)c3)cc2s1` reads inactive: -4.44%; that for `Cc1cc(C)cc(NC(=O)CSc2nc3c(cnn3-c3ccc(F)cc3)c(=O)[nH]2)c1`, inactive: 4.92%. Consider `COc1ccc(-c2nc3c4ccccc4n(CC(=O)Nc4ccc(C(C)=O)cc4)c(=O)n3n2)cc1`, for which the “activity change, negative = inhibition” value is inactive: -9.37%.

On to `Cc1ccccc1C(=O)NC1(C(F)(F)F)C(=O)Nc2c1c(=O)[nH]c(=O)n2CCc1ccccc1` (centres undefined), for which the “activity change, negative = inhibition” value was inactive: 16%. Consider `CCC(Sc1ccc2nnc(CCNS(=O)(=O)c3ccc(OC)cc3)n2n1)C(=O)OC` (centres undefined), for which the “activity change, negative = inhibition” value was inactive: -8.33%. The same measure, in the same setting: then `Cc1ccc(-c2cc3ncc4c(n3n2)-c2ccccc2OC4)cc1`, with inactive: -3.22%.

`COc1cc(NC(=O)NCCn2nnc3cc(S(=O)(=O)N(C)C)ccc32)cc(OC)c1OC`: the outcome was inactive. With `COc1cc(NC(=O)c2cc3cc4ccc(OC)c(Cl)c4nc3s2)cc(OC)c1`, the “activity change, negative = inhibition” value was inactive: -5.88%. Regarding `CCOCCCNC(=O)c1ccc2c(c1)NC(=O)C(CS(=O)(=O)Cc1ccc(F)cc1Cl)N2` (centres undefined), the “activity change, negative = inhibition” value was inactive: -16.5%. Take `Cc1cc2[nH]c(=O)c(=O)[nH]c2cc1S(=O)(=O)NCc1ccc(F)cc1`: the “activity change, negative = inhibition” value was inactive: -1.44%. Consider `Cc1cc(C)n(-c2nc3ccccc3nc2Nc2ccc(C(C)C)cc2)n1`, for which the “activity change, negative = inhibition” value is inactive: -5.19%.

With `Cc1ccc(C2=NN(CC(=O)NCCCN(CC(C)C)CC(C)C)C(=O)CC2)cc1`, the “activity change, negative = inhibition” value is inactive: -8.52%.

Regarding `CCCCc1nn2c(=O)cc(COC(=O)c3cccc(NC(=O)COc4ccccc4)c3)nc2s1`, the “activity change, negative = inhibition” value was inactive: -3.96%. For the compound `O=C(NC1CCCCCC1)C1CCN(C(=O)N2CCOc3ccc(Cl)cc32)CC1`, the “activity change, negative = inhibition” value is inactive: -0.929%. Take `Cc1cc(C)c(NC(=O)C(C)n2c(=O)cc(C)c3c(C)nn(-c4ccccc4)c32)c(C)c1` (centres undefined): the “activity change, negative = inhibition” value was inactive: 2.3%.

Turning to `CCC(=O)OCC(=O)[C@@]1(OC(=O)CC)[C@@H](C)C[C@@H]2[C@H]3CCC4=CC(=O)C=C[C@]4(C)[C@@]3(F)[C@@H](O)C[C@@]21C`, the “activity change, negative = inhibition” value was inactive: -1.58%. Consider `O=C(Nc1ccc(Cl)cc1Cl)c1cc(S(=O)(=O)N2CCC3(CC2)OCCO3)ccc1F`, for which the outcome was inactive. Consider `CCN(CCCNC(=O)CSc1cc(=O)n(C)c2ccccc12)c1ccccc1`, for which the compound was called inactive.

`CCOc1cccc(NC(=O)C2CC(=O)N(C)C(=Nc3cccc(OC)c3)S2)c1` (centres undefined): the “activity change, negative = inhibition” value was inactive: 2.98%. Regarding `COCCNC(=O)CCn1c(=O)c2cc(OC)c(OC)cc2n(CC(=O)Nc2ccc(F)c(Cl)c2)c1=O`, the “activity change, negative = inhibition” value was inactive: 0.841%.
